Test results: patent publication US20250092146A1 (ABILITA BIO, published 2025)

What was measured:
[1] = target: T1, human CCR8 (hCCR8) (human, UniProt P51685 1-355); test: flow cytometry on HEK293-hCCR8 cells, VHH-Fc; normalized to wild type VHH-1-Fc
T1 construct: On transfected HEK293/HEK293T cells, or naturally expressed on HuT-78 cells; also called C-C chemokine receptor type 8

[2] = target: T1, human CCR8 (hCCR8); test: flow cytometry on HEK293-hCCR8 cells, VHH-Fc
[3] = target: T1, human CCR8 (hCCR8); test: flow cytometry on HuT-78 cells, VHH-Fc fusion; normalized to VHH-1
[4] = target: T1, human CCR8 (hCCR8); test: flow cytometry on HuT-78 cells, VHH-Fc fusion

T1 sequence (P51685 whole entry, the tested form may be a part): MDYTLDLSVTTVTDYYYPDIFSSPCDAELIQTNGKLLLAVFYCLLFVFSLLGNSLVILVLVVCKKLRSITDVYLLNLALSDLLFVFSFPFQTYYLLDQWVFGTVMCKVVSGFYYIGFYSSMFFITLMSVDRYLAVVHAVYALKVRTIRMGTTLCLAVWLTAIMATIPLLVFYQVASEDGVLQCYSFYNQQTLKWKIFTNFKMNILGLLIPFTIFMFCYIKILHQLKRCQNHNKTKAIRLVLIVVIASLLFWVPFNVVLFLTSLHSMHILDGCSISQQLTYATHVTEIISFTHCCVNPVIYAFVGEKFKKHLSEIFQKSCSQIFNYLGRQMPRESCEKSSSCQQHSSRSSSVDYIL

| Binder | % Bmax [1] | EC50 [2] | Normalized Bmax (%) [3] | EC50 [4] |
| --- | --- | --- | --- | --- |
| VHH-1-Fc D116A (Fc fusion, rest as VHH-1-Fc) QVQLQESGGGLVQAGGSLRLSCVASGSTSSIRRIGWYRQAPGKQRELVARFSSGGGTNYADFVKGRFTISGDNAKNTMYLQMNSLKPEDTAVYYCSARRLLGTSRVAYWGQGTQVTVSS[human IgG1 Fc not given here] | 93% | 1.33 nM |  |  |
| VHH-1-Fc G59A (Fc fusion, rest as VHH-1-Fc) QVQLQESGGGLVQAGGSLRLSCVASGSTSSIRRIGWYRQAPGKQRELVARFSSAGGTNYADFVKGRFTISGDNAKNTMYLQMNSLKPEDTAVYYCSARRLLGTSRVDYWGQGTQVTVSS[human IgG1 Fc not given here] | 79% | 1.28 nM |  |  |
| VHH-1-Fc G63A (Fc fusion, rest as VHH-1-Fc) QVQLQESGGGLVQAGGSLRLSCVASGSTSSIRRIGWYRQAPGKQRELVARFSSGAGTNYADFVKGRFTISGDNAKNTMYLQMNSLKPEDTAVYYCSARRLLGTSRVDYWGQGTQVTVSS[human IgG1 Fc not given here] | 73% | 1.13 nM |  |  |
| VHH-1-Fc G64A (Fc fusion, rest as VHH-1-Fc) QVQLQESGGGLVQAGGSLRLSCVASGSTSSIRRIGWYRQAPGKQRELVARFSSGGATNYADFVKGRFTISGDNAKNTMYLQMNSLKPEDTAVYYCSARRLLGTSRVDYWGQGTQVTVSS[human IgG1 Fc not given here] | 73% | 1.2 nM |  |  |
| VHH-1-Fc G111A (Fc fusion, rest as VHH-1-Fc) QVQLQESGGGLVQAGGSLRLSCVASGSTSSIRRIGWYRQAPGKQRELVARFSSGGGTNYADFVKGRFTISGDNAKNTMYLQMNSLKPEDTAVYYCSARRLLATSRVDYWGQGTQVTVSS[human IgG1 Fc not given here] | 77% | 10.6 nM |  |  |
| VHH-1-Fc L110A (Fc fusion, rest as VHH-1-Fc) QVQLQESGGGLVQAGGSLRLSCVASGSTSSIRRIGWYRQAPGKQRELVARFSSGGGTNYADFVKGRFTISGDNAKNTMYLQMNSLKPEDTAVYYCSARRLAGTSRVDYWGQGTQVTVSS[human IgG1 Fc not given here] | 61% | 3.6 nM |  |  |
| VHH-1-Fc R37A (Fc fusion, rest as VHH-1-Fc) QVQLQESGGGLVQAGGSLRLSCVASGSTSSIARIGWYRQAPGKQRELVARFSSGGGTNYADFVKGRFTISGDNAKNTMYLQMNSLKPEDTAVYYCSARRLLGTSRVDYWGQGTQVTVSS[human IgG1 Fc not given here] | 82% | 4.59 nM |  |  |
| VHH-1-Fc R38A (Fc fusion, rest as VHH-1-Fc) QVQLQESGGGLVQAGGSLRLSCVASGSTSSIRAIGWYRQAPGKQRELVARFSSGGGTNYADFVKGRFTISGDNAKNTMYLQMNSLKPEDTAVYYCSARRLLGTSRVDYWGQGTQVTVSS[human IgG1 Fc not given here] | 69% | 2.47 nM |  |  |
| VHH-1-Fc R107A (Fc fusion, rest as VHH-1-Fc) QVQLQESGGGLVQAGGSLRLSCVASGSTSSIRRIGWYRQAPGKQRELVARFSSGGGTNYADFVKGRFTISGDNAKNTMYLQMNSLKPEDTAVYYCSAARLLGTSRVDYWGQGTQVTVSS[human IgG1 Fc not given here] | 48% | 7.65 nM |  |  |
| VHH-1-Fc R108A (Fc fusion, rest as VHH-1-Fc) QVQLQESGGGLVQAGGSLRLSCVASGSTSSIRRIGWYRQAPGKQRELVARFSSGGGTNYADFVKGRFTISGDNAKNTMYLQMNSLKPEDTAVYYCSARALLGTSRVDYWGQGTQVTVSS[human IgG1 Fc not given here] | 48% | 1.59 nM |  |  |
| VHH-1-Fc R114A (Fc fusion, rest as VHH-1-Fc) QVQLQESGGGLVQAGGSLRLSCVASGSTSSIRRIGWYRQAPGKQRELVARFSSGGGTNYADFVKGRFTISGDNAKNTMYLQMNSLKPEDTAVYYCSARRLLGTSAVDYWGQGTQVTVSS[human IgG1 Fc not given here] | 78% | 16.4 nM |  |  |
| VHH-1-Fc S27A (Fc fusion, rest as VHH-1-Fc; Printed S27A) QVQLQESGGGLVQAGGSLRLSCVASGATSSIRRIGWYRQAPGKQRELVARFSSGGGTNYADFVKGRFTISGDNAKNTMYLQMNSLKPEDTAVYYCSARRLLGTSRVDYWGQGTQVTVSS[human IgG1 Fc not given here] | 70% | 1.45 nM |  |  |
| VHH-1-Fc S30A (Fc fusion, rest as VHH-1-Fc) QVQLQESGGGLVQAGGSLRLSCVASGSTASIRRIGWYRQAPGKQRELVARFSSGGGTNYADFVKGRFTISGDNAKNTMYLQMNSLKPEDTAVYYCSARRLLGTSRVDYWGQGTQVTVSS[human IgG1 Fc not given here] | 74% | 1.6 nM |  |  |
| VHH-1-Fc S35A (Fc fusion, rest as VHH-1-Fc) QVQLQESGGGLVQAGGSLRLSCVASGSTSAIRRIGWYRQAPGKQRELVARFSSGGGTNYADFVKGRFTISGDNAKNTMYLQMNSLKPEDTAVYYCSARRLLGTSRVDYWGQGTQVTVSS[human IgG1 Fc not given here] | 69% | 1.26 nM |  |  |
| VHH-1-Fc S57A (Fc fusion, rest as VHH-1-Fc) QVQLQESGGGLVQAGGSLRLSCVASGSTSSIRRIGWYRQAPGKQRELVARFASGGGTNYADFVKGRFTISGDNAKNTMYLQMNSLKPEDTAVYYCSARRLLGTSRVDYWGQGTQVTVSS[human IgG1 Fc not given here] | 82% | 1.25 nM |  |  |
| VHH-1-Fc S58A (Fc fusion, rest as VHH-1-Fc) QVQLQESGGGLVQAGGSLRLSCVASGSTSSIRRIGWYRQAPGKQRELVARFSAGGGTNYADFVKGRFTISGDNAKNTMYLQMNSLKPEDTAVYYCSARRLLGTSRVDYWGQGTQVTVSS[human IgG1 Fc not given here] | 84% | 1.11 nM |  |  |
| VHH-1-Fc S105A (Fc fusion, rest as VHH-1-Fc) QVQLQESGGGLVQAGGSLRLSCVASGSTSSIRRIGWYRQAPGKQRELVARFSSGGGTNYADFVKGRFTISGDNAKNTMYLQMNSLKPEDTAVYYCAARRLLGTSRVDYWGQGTQVTVSS[human IgG1 Fc not given here] | 62% | 3.12 nM |  |  |
| VHH-1-Fc S113A (Fc fusion, rest as VHH-1-Fc) QVQLQESGGGLVQAGGSLRLSCVASGSTSSIRRIGWYRQAPGKQRELVARFSSGGGTNYADFVKGRFTISGDNAKNTMYLQMNSLKPEDTAVYYCSARRLLGTARVDYWGQGTQVTVSS[human IgG1 Fc not given here] | 67% | 3.77 nM |  |  |
| VHH-1-Fc T29A (Fc fusion, rest as VHH-1-Fc) QVQLQESGGGLVQAGGSLRLSCVASGSASSIRRIGWYRQAPGKQRELVARFSSGGGTNYADFVKGRFTISGDNAKNTMYLQMNSLKPEDTAVYYCSARRLLGTSRVDYWGQGTQVTVSS[human IgG1 Fc not given here] | 45% | 0.8 nM |  |  |
| VHH-1-Fc T65A (Fc fusion, rest as VHH-1-Fc) QVQLQESGGGLVQAGGSLRLSCVASGSTSSIRRIGWYRQAPGKQRELVARFSSGGGANYADFVKGRFTISGDNAKNTMYLQMNSLKPEDTAVYYCSARRLLGTSRVDYWGQGTQVTVSS[human IgG1 Fc not given here] | 70% | 1.23 nM |  |  |
| VHH-1-Fc T112A (Fc fusion, rest as VHH-1-Fc) QVQLQESGGGLVQAGGSLRLSCVASGSTSSIRRIGWYRQAPGKQRELVARFSSGGGTNYADFVKGRFTISGDNAKNTMYLQMNSLKPEDTAVYYCSARRLLGASRVDYWGQGTQVTVSS[human IgG1 Fc not given here] | 84% | 1.26 nM |  |  |
| VHH-1-Fc V115A (Fc fusion, rest as VHH-1-Fc) QVQLQESGGGLVQAGGSLRLSCVASGSTSSIRRIGWYRQAPGKQRELVARFSSGGGTNYADFVKGRFTISGDNAKNTMYLQMNSLKPEDTAVYYCSARRLLGTSRADYWGQGTQVTVSS[human IgG1 Fc not given here] | 77% | 7.19 nM |  |  |
| VHH-1-Fc Y117A (Fc fusion, rest as VHH-1-Fc) QVQLQESGGGLVQAGGSLRLSCVASGSTSSIRRIGWYRQAPGKQRELVARFSSGGGTNYADFVKGRFTISGDNAKNTMYLQMNSLKPEDTAVYYCSARRLLGTSRVDAWGQGTQVTVSS[human IgG1 Fc not given here] | 82% | 1.61 nM |  |  |
| VHH-1.3-1-Fc (Fc fusion, Against VHH-1.3 (IMGT): G64S) EVQLVESGGGLVQPGGSLRLSCAASGSTSSIRRIGWYRQAPGKGRELVARFSSGGSTNYADSVKGRFTISGDNSKNTMYLQMNSLRAEDTAVYYCSARRLLGTSRVDYWGQGTTVTVSS[human IgG1 Fc not given here] |  |  | 85.3% | 2.03 nM |
| VHH-1.3-2-Fc (Fc fusion, Against VHH-1.3 (IMGT): L110V) EVQLVESGGGLVQPGGSLRLSCAASGSTSSIRRIGWYRQAPGKGRELVARFSSGGGTNYADSVKGRFTISGDNSKNTMYLQMNSLRAEDTAVYYCSARRLVGTSRVDYWGQGTTVTVSS[human IgG1 Fc not given here] |  |  | 116% | 2.21 nM |
| VHH-1.3-3-Fc (Fc fusion, Against VHH-1.3 (IMGT): I39Y, G40S, R55W) EVQLVESGGGLVQPGGSLRLSCAASGSTSSIRRYSWYRQAPGKGRELVAWFSSGGGTNYADSVKGRFTISGDNSKNTMYLQMNSLRAEDTAVYYCSARRLLGTSRVDYWGQGTQVTVSS[human IgG1 Fc not given here] |  |  | 104% | 1.81 nM |
